According to PubChem BioAssay AID1745853 (National Center for Advancing Translational Sciences (NCATS), 2022):
Values joined by “and” are separate entries in the source; they are usually repeats but may differ in a detail not shown here. Equal values may be shown once. The list shows a part of the results. Further columns of the screen follow, without active or inactive calls.

Tests used:
Assay in all cases: Primary Screen for Target Class Profiling of Small Molecule Inhibitors of Methyltransferases
[1] = target: Glycine N-methyltransferase (Homo sapiens) (UniProt Q14749); details: purified enzyme, MTase-Glo SAH luminescence; measured here: GNMT inhibition; at 40 µM; stronger effect = lower value
Outline: (§1)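 Each enzyme was assayed with SAM and its substrate. SAH formation detected by MTase-Glo luminescence; single-point 40 uM screen[…].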

[2] = target: Guanidinoacetate N-methyltransferase (Homo sapiens) (UniProt Q14353); details: purified enzyme, MTase-Glo SAH luminescence; measured here: GAMT inhibition; at 40 µM; stronger effect = lower value
Outline: as §1

[3] = target: Histamine N-methyltransferase (Homo sapiens) (UniProt P50135); details: purified enzyme, MTase-Glo SAH luminescence; measured here: HNMT inhibition; at 40 µM; stronger effect = lower value
Outline: as §1

[4] = target: Nicotinamide N-methyltransferase (Homo sapiens) (UniProt P40261); details: purified enzyme, MTase-Glo SAH luminescence; measured here: NNMT inhibition; at 40 µM; stronger effect = lower value
Outline: as §1

[5] = target: Phenylethanolamine N-methyltransferase (Homo sapiens) (UniProt P11086); details: purified enzyme, MTase-Glo SAH luminescence; measured here: PNMT inhibition; at 40 µM; stronger effect = lower value
Outline: as §1
On the % scale 0 is the no-effect control and ±100 the full control effect.

Row | SMILES | activity change, negative = inhibition [1] [%] | activity change, negative = inhibition [2] | activity change, negative = inhibition [3] [%] | activity change, negative = inhibition [4] | activity change, negative = inhibition [5]
1 | Cc1ccc(CN2C(=O)c3nc4ccccc4n3CC2(C)C(=O)NC2CCCC2)cc1 (stereo not given) | 2.21 | 0% | 4.59 | 10% | 2.46%
2 | Cc1ccc(CNC(=O)Cn2ccc3cc(S(=O)(=O)N4CCCC4)ccc32)cc1 | -1.74 | -0.468% | -3.68 | -7.62% | -4.41%
3 | C=CC(=O)Nc1ccc2ncnc(Nc3ccc(OCc4cccc(F)c4)c(Cl)c3)c2c1 | 0.295 | -1.06% | 5.71 | -13.7% | 5.19%
4 | O=C(Cn1nc2n(CCc3ccccc3)c(=O)c3ccccc3n2c1=O)NCc1ccccc1Cl | 5.85 | 2% | 6.04 | 6.47% | 4.82%
5 | CC(C)CCNC(=O)C1(C)Cn2c(cc3ccccc32)C(=O)N1Cc1ccc2c(c1)OCO2 (stereo not given) | 2.54 | 3.78% | 5.13 | -1.37% | 0.669%
6 | CC(C)CNC(=O)c1ccc2c(=O)n(Cc3ccccc3)c3nn(Cc4ccc(Cl)cc4)c(=O)n3c2c1 | -0.216 | 4.72% | 2.47 | -1.06% | -0.276%
7 | Cc1cc(-c2cc(O)ccc2Cl)cc2nnc(Nc3ccc(OCCN4CCCC4)cc3)nc12 | -2.28 | -6.01% | -30.3 | -26.5% | -5.98%
8 | CC(C)OCCCn1c(=O)c2ccc(Cl)cc2n2c(SCc3cccc(F)c3)nnc12 | 2.46 | 1.44% | 5.88 | -4.88% | 0.206%
9 | NS(=O)(=O)c1ccc(-n2nc(C3CCOC3)nc2C2CCC2)cc1 (stereo not given) | 2.6 | 0.802% | -0.514 | 4.48% | -2.76%
10 | CCOC(=O)c1cc2n(n1)CC(C)(C(=O)NCCC(C)C)N(c1cccc(Cl)c1C)C2=O (stereo not given) | -7.95 | 0.523% | -1.55 | 3.7% | -3.15%
11 | CCOC(=O)CSc1nc2c(sc3ccccc32)c(=O)n1CCCN1CCCC1 | -12.1 | -6.2% | -25.2 | -26.2% | -9.61%
12 | CC(C)OCCCNC(=O)CCc1nnc2n(CCCOC(C)C)c(=O)c3ccccc3n12 | -1.22 | 20.4% | 9.34 | 6.45% | 2.58%
13 | CC(=O)N1CCCN(c2ncnc3c2CN(C2CCCCC2)C(=O)CN3C)CC1 | -2.53 | -0.785% | 0.535 | -6.75% | -2.72%
14 | Cc1ccc(C)c(N2CCN(C(=O)CCc3nnc4n(CCCOC(C)C)c(=O)c5ccccc5n34)CC2)c1 | -19.2 | 0% | -3.23 | -11.1% | -4.62%
15 | CN1CCN(C(=O)c2cncc(N[C@H]3C[C@@H]4OCC[C@H]34)n2)CC1 | -3.22 | -5.58% | -4.22 | -2.56% | -18.3%
16 | CN(C)CC/C=C1\c2ccccc2COc2ccccc21 | 1.58 | 15.6% | -21.4 | -5.7% | 2.09%
17 | COc1cc(O)cc(C)c1C(=O)O[C@H]1[C@@H](O)[C@@H](n2ccc(=O)[nH]c2=O)O[C@@H]1CO | -0.035 | -3.84% | -0.892 | -14.6% | 1.36%
18 | COC(=O)c1ccc(NCC2=CC(C)(C)COc3ccc(OC)cc32)cc1 | -6.21 | -10.3% | -6.14 | -10.8% | -11.6%
19 | COC(=O)C(Cc1ccccc1)NC(=O)c1ccccc1 (stereo not given) | 0 | 8.14% | 9.24 | -5.29% | 4.51%
20 | C[C@H]1CC[C@@]2(OC1)O[C@H]1CC3[C@@H]4CC[C@@H]5C[C@@H](O[C@@H]6O[C@H](CO)[C@@H](O[C@@H]7O[C@@H](C)[C@H](O)[C@@H](O)[C@H]7O)[C@H](O)[C@H]6O[C@@H]6O[C@H](CO)[C@@H](O)[C@H](O)[C@H]6O)CC[C@]5(C)C4CC[C@]3(C)[C@H]1[C@@H]2C (stereo not given in full) | 0.295 | 12.9% | 9.42 | 0.964% | -1.7%

Row | SMILES | activity change, negative = inhibition [1] [%] | activity change, negative = inhibition [2] | activity change, negative = inhibition [3] [%] | activity change, negative = inhibition [4] | activity change, negative = inhibition [5]
21 | CCC(=O)O[C@H]1C(C)(C)[C@H]([C@@H](O)C(=O)OC)[C@]2(C)C(=O)[C@@]1(O)[C@H]1O[C@]13C1CC(=O)O[C@@H](c4ccoc4)[C@]1(C)CCC32 (stereo not given in full) | 0 | -15.5% | -1.89 | -26.2% | -5.79%
22 | CC(C)C1=NOC2(CCN(C(=O)c3ccccc3F)CC2)C1 | -4.89 | -12.4% | -2.65 | -8.44% | -10.4%
23 | CC1(C(=O)NCc2ccccc2)Cn2c(nc3ccccc32)C(=O)N1CCCc1ccccc1 (stereo not given) | -1.53 | 4.17% | -1.17 | 3.65% | -1.28%
24 | Cc1ccc(Cn2c(=O)c3ccccc3n3c(=O)n(Cc4ccccc4F)nc23)cc1 | 3.78 | 4.31% | 7.07 | -0.614% | -0.002%
25 | CCOC(=O)c1cc2n(n1)CC(C)(C(=O)NCCC(C)C)N(c1cccc(OC)c1)C2=O (stereo not given) | -1.17 | 0.41% | 0.247 | 8.12% | -0.353%
26 | O=S(=O)(NCCc1ccc(Cl)cc1)c1ccc2[nH]c3c(c2c1)CCCC3 | -3.95 | 3.54% | -5.74 | -5.13% | 0.136%
27 | CCCc1nc2c3ccccc3n(CC(=O)N3CCN(c4ccccc4F)CC3)c(=O)n2n1 | 16.3 | 0% | 9.23 | 2.88% | 4.81%
28 | Cn1cc(S(C)=O)c(=O)c2ccc(F)cc21 (stereo not given) | -1.78 | 1.69% | -0.023 | -15.7% | -8.41%
29 | COCCCNC(=O)C1(C)Cn2nc(-c3ccccc3)cc2C(=O)N1c1ccc2c(c1)OCO2 (stereo not given) | 1.24 | 0% | 2.2 | 3.21% | -2.71%
30 | O=C(O)c1ccccc1C(=O)Nc1ccc(-c2ccccc2)cc1 | -1.93 | -1.09% | 5.55 | -11.2% | 3.11%
31 | COCCCNC(=O)C1(C)Cn2nc(-c3ccccc3)cc2C(=O)N1c1cc(C)cc(C)c1 (stereo not given) | -4.71 | 0.569% | -4.42 | -4.64% | -7.71%
32 | CCN1C(=O)c2cc(C(=O)NCc3ccccc3C)nn2CC1(C)C(=O)NC1CCCC1 (stereo not given) | 7.44 | 0.064% | 4.72 | 8.18% | 5.81%
33 | CN1C(=O)c2ccccc2NC(=O)[C@]12O[C@@H]2c1cccc(O)c1 | 1.74 | -0.797% | 9.1 | -11.1% | -3.38%
34 | CC(=O)N1CCN(CCOc2ccc(C3CCN(C4=Nn5c(nnc5C(F)(F)F)CC4)CC3)cc2)CC1 | -10.3 | 6.79% | 3.53 | -15.8% | -1.63%
35 | CCc1cc(=O)n(CC(=O)Nc2ccccc2OC)c(N2CCOCC2)n1 | -2.39 | -3.13% | -3.92 | -3.09% | -2.47%
36 | O=C1N=C(N2CCOCC2)CN1c1ccc(Cl)cc1 | -6.66 | -10.8% | 0.762 | -16.9% | -6.15%
37 | CC(C)OCCCn1c(=O)c2ccccc2n2c(CCC(=O)Nc3cccc(Cl)c3)nnc12 | -11.2 | 0% | 3.33 | -0.628% | -0.352%
38 | O=C(CSc1nnc2n(CCc3ccccc3)c(=O)c3ccccc3n12)Nc1ccccc1F | 0.927 | 0% | 8.57 | 0.708% | 4.07%
39 | CC(C)N1C[C@@H](C(=O)O)C[C@H](C(=O)Nc2ccc(F)cc2)C1 | -1.54 | -0.141% | 0.241 | -5.26% | -2.32%
40 | O=C(NCc1ccccc1)N1CCn2cccc2C1Cc1ccccc1 (stereo not given) | -5.25 | -2.52% | -7.26 | -6.96% | -8.38%

Row | SMILES | activity change, negative = inhibition [1] [%] | activity change, negative = inhibition [2] | activity change, negative = inhibition [3] [%] | activity change, negative = inhibition [4] | activity change, negative = inhibition [5]
41 | CCCn1c(=O)c2ccc(C(=O)NC(C)CC)cc2n2c(=O)n(CC(=O)c3ccc(C)cc3C)nc12 (stereo not given) | 4.21 | 4.56% | 6.53 | -0.329% | -0.008%
42 | CCN(CCCNC(=O)CCCc1nnc2n3nc(C)nc3c3ccccc3n12)c1cccc(C)c1 | -10 | 0.669% | -6.71 | 5.96% | -5.64%
43 | CCCN1C(=O)c2c(C(=O)NCc3cccc(C)c3)ncn2CC1(C)C(=O)NC1CCCC1 (stereo not given) | 1.62 | 0% | 3.24 | 4.8% | 4.21%
44 | OC[C@H]1O[C@@H](OCc2ccccc2)[C@H](O[C@@H]2OC[C@@H](O)[C@H](O)[C@H]2O)[C@@H](O)[C@@H]1O | 6.81 | 5.92% | 12 | -6.54% | 5.36%
45 | CCc1cccc2c3c([nH]c12)C(CC)(CC(=O)O)OCC3 (stereo not given) | -9.61 | -9.01% and 0.073% | -1.93 | -19.8% and -5.63% | -3.07% and 3.84%
46 | CCCn1c(=O)c2cc(Cl)ccc2n2c(SCc3cccc(C)c3)nnc12 | -14.9 | -0.526% | -2.58 | -13.8% | -1.82%
47 | CCN1C(=O)c2cc(C(=O)Nc3ccc(C)cc3)nn2CC1(C)C(=O)NC1CCCC1 (stereo not given) | -0.543 | 3.17% | -7.35 | -2.38% | 2.06%
48 | CC(C)N1CCN(C(=O)CC2=C3CCCCC3NC2=O)CC1 (stereo not given) | -2.12 | 3.4% | 1.03 | 2.08% | 16.5%
49 | COc1c(OC2OC(CO)C(O)C(O)C2O)ccc(O)c1C(=O)OCc1ccccc1O[C@@H]1O[C@H](CO)[C@@H](O)[C@H](O)[C@H]1O (stereo not given in full) | 1.88 | -3.79% | 2.22 | -14.7% | 1.11%
50 | Cc1cc2c(cc3n2CC(C)(C(=O)NC2CCCCCCC2)N(Cc2ccccc2F)C3=O)o1 (stereo not given) | -1.9 | 2.07% | 1.91 | -0.439% | -0.745%
51 | CCCN1C(=O)c2cc(C(=O)NCc3cccnc3)nn2CC1(C)C(=O)NC1CCCC1 (stereo not given) | 7.2 | 0.582% | 3.23 | 4.89% | 5.03%
52 | CC(C)OCCCNC(=O)Cn1ccc2cc(S(=O)(=O)N3CCCCC3)ccc21 | 4.75 | 0% | 3.52 | 4.04% | 1.46%
53 | COc1ccc(CNC(=O)CSc2nnc3n(CCc4ccccc4)c(=O)c4ccccc4n23)cc1 | -1.65 | 5.03% | 2.31 | -4.87% | -2%
54 | CCCn1c(=O)c2ccccc2n2c(=O)n(CC(=O)Nc3ccc(Cl)cc3)nc12 | 6.08 | 0.054% | 9.73 | 0.67% | 3.79%
55 | COC(=O)c1cc2n(n1)CCCN(C(=O)COc1ccc(C)c(C)c1)C2 | -1.57 | -0.14% | -0.901 | -6.58% | 0.194%
56 | Cn1c(=O)n(C)c2cc(S(=O)(=O)NCC3CCCO3)ccc21 (stereo not given) | -3.09 | 2.77% | -5.62 | -7.94% | -9.11%
57 | NC(=O)c1cccc(CC2CCN(C(=O)c3ccnc(-n4cnnc4)c3)C2)c1 (stereo not given) | -2.73 | -3.85% | -8.05 | -9.02% | 2.49%
58 | COCCn1c(=O)c2c(n1Cc1ccccc1)CN(C(=O)c1cc3ccccc3[nH]1)CC2 | -10.5 | -6.77% | -1.59 | -11.1% | -1.43%
